Reference: patent US12551573B2, “Compositions and methods for the targeting of PCSK9” (Scribe Therapeutics Inc., priority 2022, dated 2026)
Positions count from the first letter of the chain named. Like-named read-outs stand apart in the source and are kept apart here.

B1: DOMAIN_9843 (protein, listed as Mus musculus)
chain: MDAVTYEDVHVNFSREEWVLLDPSQKSLYKDVMLETYWNLTCIGYKWKDHDNEEYCQNSGRHGRCINCPSAYGKKQCTNLF
B2: DOMAIN_9846 (protein, listed as Cricetulus griseus)
chain: EKQFSFQSLLTFEDVAINFSKKEWECLDTSQRDLYRFVMLENYSNLVSVGLSVSKPELVTCLEQNKEPWMVNIEESEVLEP
B3: DOMAIN_11348 (protein, listed as Chlorocebus sabaeus)
chain: FQEPLKFRDVAVEFSLEEWQCLDTIQQNLYRNVMLENYRNLVFLGIAVSKPDLITCLEQEKEPWTRKRHRMVAKPVTCSHF
B4: DOMAIN_9857 (protein, listed as Mesocricetus auratus)
chain: SKAPVTFGDLVIYFSQEEWEWLSPIQKDLYEEVMLENYHTLVSLGLVSRRPNIITLLEKGKAPWMVEPSRRRRGPESGSKR
B5: DOMAIN_9891 (protein, listed as Mus caroli)
chain: TQRSISFKDLAVDFTREEWQRLGPAQRLLYRDVMLENYSNLIAVGLHVSKPDVILKLEQGKEPWVVENSSRQNHAEDDEPL
B6: DOMAIN_9915 (protein, listed as Mus caroli)
chain: MEDPLSFTDVAIDFSADECECLDSAQWNLYKEVMLENYSNLVFLGLAFSKPHLVTFLEQSSDPWSVKRKASATIPLGSKPH
B7: DOMAIN_9962 (protein, listed as Rattus norvegicus)
chain: B6 chain with M1F, E2Q, P4L, D23E, S24P, H52Y, V66M, T73A, P75H, S78L
B8: DOMAIN_10018 (protein, listed as Octodon degus)
chain: LLPAAGCGKDSGTPATEAVTFEDVAVNFSREEWALLDPPQRKLYRDVMWETLRHLAAVGMNSDDRQIEDVYKICRKNLSGA
B9: DOMAIN_10041 (protein, listed as Mus caroli)
chain: PITFDDVAIIFSPEEWECLDSAQRDLYRDVMVENCRNLLSVEASRHGTKGFSSKKDMKRSFQEELSRRLSKCGADIFHPRK
B10: DOMAIN_10044 (protein, listed as Mus musculus)
chain: MNAVTYRDVHVNFTQEEWALLDPSQKKLYKDVMLETYRNLNAIGFNWEAQNIEEHCQSSRRHRRCERSQSAEKPSEYTQRD
B11: DOMAIN_11386 (protein, listed as Capra hircus)
chain: SQGRLRFQDVAIDFTLEEWECLDLGQRELYRDVMLENYGNLASLGLIVCKPDLVTFLEKMRDPQDVRGIETTAIHPDLASF
B12: DOMAIN_10050 (protein, listed as Octodon degus)
chain: RPRALKFADVAVYFSPEEWGCLRPAQRTLYRDVMRETYGHLGALGCAGPKPALISWLERNTDDWEPAALDPQEYPRGVTVQ
B13: DOMAIN_10091 (protein, listed as Fukomys damarensis)
chain: VTFDDVAVNFTMEEWALLDPSQKKLYRDVMWENFRNVTAIGRNWDNQQIEDQYKNYRNNLRKTSADFQSLQKHAMTNPEEK
B14: DOMAIN_10127 (protein, listed as Peromyscus maniculatus)
chain: FQSEVMFRDVTVNFSQEEWECLNSYERDLYKDVMLENYSHLVSLGCSISKPDVITLLEQGKEPWMIVRDERRRWSQDLETR
B15: DOMAIN_10160 (protein, listed as Ictidomys tridecemlineatus)
chain: AHESLAFRDVAIDLSQEEWECLDTAQRDLYREVMLENYSNLISLGCIIPKPDVIVLLEQEKDPWLETREETRRRSSDFTKK
B16: DOMAIN_10184 (protein, listed as Mus caroli)
chain: B14 chain with F1A, Q2H, E4M, N13D, N23S, K31R, D69A, R71K, Q76R, T80S
B17: DOMAIN_10257 (protein, listed as Octodon degus)
chain: EPWAVTFADVAVYFSSEEWRCLRPAQRALYRDVMRDTYGLLSALGGGGTKPALISWVEGEAELWDPDAQDPEVVRWPAEAD
B18: DOMAIN_10294 (protein, listed as Mus musculus)
chain: SQVSLTFEDVAVLFTRDEWKKLVPSQRSLYREVMLENYSNLASLAGFPFTKPKVISLLQQGEDPWKVEEEGPGGFSLGLKC
B19: DOMAIN_10334 (protein, listed as Mustela putorius)
chain: PQKSVTFEDVAVYFTQTEWDGLSPAQRALYRDVMLENYGNVASLGFSLLKPAVISQLEGAGELGRPSPLVAGTEIGLQGLW
B20: DOMAIN_11486 (protein, listed as Bos mutus)
chain: SQSPLTFGDVAVEFSGEEWAWLDSAQRSLHRSVMLENYRNLASLGLCLSKPEMISSLEQRKEPWAVKRKSTRGMRPDSQTL
B21: DOMAIN_10351 (protein)
chain: FQGSVSFKDVTVDFSREEWQQLDLAQKSLYRDVMLENYFNLISVGCQVPKPEVIFNLERGEQPCMLDGEISSQSYLDQGIG
modifications: Delphinapterus leucas
B22: DOMAIN_10381 (protein)
chain: SQGSLSFRDVTVGFTWEEWQQLDPAQRALYRDVMLETYSHLLSVGYCIPKPEVILKLEQGEEPWILEEESSSQSVPELINS
modifications: Vicugna pacos
B23: DOMAIN_10386 (protein, listed as Odobenus rosmarus)
chain: SHGPLSFEDVAIAFTKEEWQQLDPAQRTLYRDVMLENFSHLVSLGHPVSKPDIISRLEQGEEPWIIKRDISDWICPERETR
B24: DOMAIN_10403 (protein)
chain: AQGSVMFSDVSIDFSQEEWECLNDDQRDLYRDVMLENYSNLVSMGHCISKPDVISFLEQGKEPWLVDREPTRYQWPVLESR
modifications: Vicugna pacos
B25: DOMAIN_10420 (protein, listed as Odobenus rosmarus)
chain: SQEPVTFEDVAVYFTQNQWASLDPMQRALYLEVMLENYANITSLAALPFPKPDLILQLEQGEAPWGLDPWTPLEREALGGV
B26: DOMAIN_10425 (protein)
chain: SQESVSFEDVAVYFTRNQWASLDSAQRTLYREVMLENYANVTSLAAFPFPKPDLIFQLERGKAPGGLDPWTPIRREVRGVC
modifications: Delphinapterus leucas
B27: DOMAIN_10427 (protein, listed as Carlito syrichta)
chain: SKDLVTFGDVAVNFSQEEWEWLNPAQRNLYRRVMLENYRSLVSLGVSVSKPDVISLLEQGKEPWMVKKEGTRGACPDWEYV

Test system: HBEGF locus
Assay type: cell-based, human
[1] = repressor domain in dXR, repression of the HBEGF gene, abundance of domain in library after vs before diphtheria toxin selection
[2] = high-throughput screen of dXR repression of the HBEGF gene, change in abundance of each domain in the library before and after diphtheria toxin selection

| Molecule | Log2 (fold change) [1] | Log2 (fold change) [2] |
| --- | --- | --- |
| B1 | 2.3385 |  |
| B2 | 2.7865 |  |
| B3 |  | 3.3651 |
| B4 | 3.3666 |  |
| B5 | 2.8116 |  |
| B6 | 3.4011 |  |
| B7 | 2.7249 |  |
| B8 | 3.3372 |  |
| B9 | 2.8662 |  |
| B10 | 2.826 |  |
| B11 |  | 3.7637 |
| B12 | 3.3147 |  |
| B13 | 2.1679 |  |
| B14 | 3.6912 |  |
| B15 | 2.9333 |  |
| B16 | 4.2854 |  |
| B17 | 3.1757 |  |
| B18 | 2.689 |  |
| B19 | 3.3529 |  |
| B20 |  | 4.8326 |
| B21 | 3.3309 |  |
| B22 | 2.215 |  |
| B23 | 2.8337 |  |
| B24 | 3.3993 |  |
| B25 | 3.7185 |  |
| B26 | 2.8616 |  |
| B27 | 2.3719 |  |
